# Measurements: the supplement of paper PMC10037445
# Values joined by “and” are separate entries in the source; they are usually repeats but may differ in a detail not shown here. Equal values may be shown once. Whole data set: some 2,900 compounds, median “NF-kB SEAP reporter activity, fold change vs agonist alone” near 0.99, cut for the highest 2% near 2.6. Some of the results follow.
# Experiments:
# RAW-Dual [1] = assay: NF-kB SEAP reporter activity, fold change vs agonist alone; cytotoxicity flag (confluency mask): not cytotoxic; higher = enhanced NF-kB activity
# Method in brief: (§1)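 Cytotoxic wells were those whose IncuCyte confluency was below 70% of agonist controls in both mask sets. The cells were RAW-Dual macrophages at 50,000 cells/well in DMEM on 384-well plates, dosed with 50 nL of library stock by pin tool, stimulated with a PRR agonist 1 h later, and kept at 37 °C, 5% CO2 for 20 hours. IRF and NF-κB reporter activity, as fold change over agonist-alone wells, came from supernatant read by QuantiLuc luminescence and QuantiBlue absorbance, respectively.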
# RAW-Dual [2] = assay: NF-kB SEAP reporter activity, fold change vs agonist alone; higher = enhanced NF-kB activity; conditions: library stock concentration (final ~1000-fold dilution): 10 mM
# Method in brief: as §1
# RAW-Dual [3] = assay: NF-kB SEAP reporter activity, fold change vs agonist alone; cytotoxicity flag (confluency mask): cytotoxic (confluency <70% of control); higher = enhanced NF-kB activity
# Method in brief: as §1
# [4] = agonist: ODN 1826 (TLR9) 0.5 ug/mL
# [5] = agonist: Pam2CSK4 (TLR2/6) 0.1 ug/mL
# [6] = agonist: Pam3CSK4 (TLR2/1) 0.1 ug/mL
# [7] = cytotoxicity flag (confluency mask): not cytotoxic, agonist: Imiquimod (TLR7) […]
# [8] = cytotoxicity flag (confluency mask): not cytotoxic, agonist: MPLA (TLR4) […]
structure (smiles),measurement,setting,value
CC(=O)NC(CC(C)C)C(=O)NC(CC(C)C)C(=O)NC(C=O)CCCNC(=N)N (stereo unspecified) (library stock concentration (final ~1000-fold dilution): 10 mM),NF-kB SEAP reporter activity,RAW-Dual [1]; agonist: LPS (TLR4) 0.1 ug/mL,1.01
same,NF-kB SEAP reporter activity,RAW-Dual [1]; [4],1.02
same,NF-kB SEAP reporter activity,RAW-Dual [1]; [5],1.08
same,NF-kB SEAP reporter activity,RAW-Dual [1]; [6],1.15
CC(=O)NC(CC(C)C)C(=O)NC(CC(C)C)C(=O)NC(C=O)CCCNC(=N)N (stereo unspecified),NF-kB SEAP reporter activity,RAW-Dual [2]; [7],0.983
same,NF-kB SEAP reporter activity,RAW-Dual [2]; [8],1.09
COc1cccc2c1C(=O)c1c(O)c3c(c(O)c1C2=O)CC(O)(C(C)=O)CC3OC1CC(N)C(O)C(C)O1.Cl (stereo unspecified),NF-kB SEAP reporter activity,"RAW-Dual [2]; cytotoxicity flag (confluency mask): cytotoxic (confluency <70% of control), agonist: Imiquimod (TLR7) […]",0.365
same,NF-kB SEAP reporter activity,"RAW-Dual [2]; cytotoxicity flag (confluency mask): cytotoxic (confluency <70% of control), agonist: MPLA (TLR4) […]",0.213
COc1cccc2c1C(=O)c1c(O)c3c(c(O)c1C2=O)CC(O)(C(C)=O)CC3OC1CC(N)C(O)C(C)O1.Cl (stereo unspecified) (library stock concentration (final ~1000-fold dilution): 10 mM),NF-kB SEAP reporter activity,RAW-Dual [3]; agonist: LPS (TLR4) 0.1 ug/mL,0.249
same,NF-kB SEAP reporter activity,RAW-Dual [3]; [4],0.191
same,NF-kB SEAP reporter activity,RAW-Dual [3]; [5],0.0932
same,NF-kB SEAP reporter activity,RAW-Dual [3]; [6],0.195
CC(C)S(=O)(=O)c1ccc2nccc(Nc3ccc4scnc4c3)c2c1,NF-kB SEAP reporter activity,RAW-Dual [2]; [7],1.49
same,NF-kB SEAP reporter activity,RAW-Dual [2]; [8],1.34
CC(C)S(=O)(=O)c1ccc2nccc(Nc3ccc4scnc4c3)c2c1 (library stock concentration (final ~1000-fold dilution): 10 mM),NF-kB SEAP reporter activity,RAW-Dual [1]; agonist: LPS (TLR4) 0.1 ug/mL,2.42
same,NF-kB SEAP reporter activity,RAW-Dual [1]; [4],1.39
same,NF-kB SEAP reporter activity,RAW-Dual [1]; [5],1.5
same,NF-kB SEAP reporter activity,RAW-Dual [1]; [6],1.56
CN(C)C1C(O)=C(C(N)=O)C(=O)C2(O)C(O)=C3C(=O)c4c(O)ccc(Cl)c4C(O)C3CC12.Cl (stereo unspecified) (library stock concentration (final ~1000-fold dilution): 10 mM),NF-kB SEAP reporter activity,RAW-Dual [1]; agonist: LPS (TLR4) 0.1 ug/mL,1.28
same,NF-kB SEAP reporter activity,RAW-Dual [1]; [4],1.25
same,NF-kB SEAP reporter activity,RAW-Dual [1]; [5],0.881
same,NF-kB SEAP reporter activity,RAW-Dual [1]; [6],0.934
CN(C)C1C(O)=C(C(N)=O)C(=O)C2(O)C(O)=C3C(=O)c4c(O)ccc(Cl)c4C(O)C3CC12.Cl (stereo unspecified),NF-kB SEAP reporter activity,RAW-Dual [2]; [7],1.26
same,NF-kB SEAP reporter activity,RAW-Dual [2]; [8],1.37
NC(=O)c1cccc(N)c1 (library stock concentration (final ~1000-fold dilution): 10 mM),NF-kB SEAP reporter activity,RAW-Dual [1]; agonist: LPS (TLR4) 0.1 ug/mL,0.985
same,NF-kB SEAP reporter activity,RAW-Dual [1]; [4],0.989
same,NF-kB SEAP reporter activity,RAW-Dual [1]; [5],1.07
same,NF-kB SEAP reporter activity,RAW-Dual [1]; [6],1.13
NC(=O)c1cccc(N)c1,NF-kB SEAP reporter activity,RAW-Dual [2]; [7],0.892
same,NF-kB SEAP reporter activity,RAW-Dual [2]; [8],0.99
COc1cccc2c1C(=O)c1c(O)c3c(c(O)c1C2=O)CC(O)(C(=O)CO)CC3OC1CC(N)C(O)C(C)O1.Cl (stereo unspecified) (library stock concentration (final ~1000-fold dilution): 10 mM),NF-kB SEAP reporter activity,RAW-Dual [1]; agonist: LPS (TLR4) 0.1 ug/mL,0.25
same,NF-kB SEAP reporter activity,RAW-Dual [1]; [4],0.194
same,NF-kB SEAP reporter activity,RAW-Dual [1]; [5],0.103
same,NF-kB SEAP reporter activity,RAW-Dual [1]; [6],0.16
COc1cccc2c1C(=O)c1c(O)c3c(c(O)c1C2=O)CC(O)(C(=O)CO)CC3OC1CC(N)C(O)C(C)O1.Cl (stereo unspecified),NF-kB SEAP reporter activity,RAW-Dual [2]; [7],0.222
same,NF-kB SEAP reporter activity,RAW-Dual [2]; [8],0.229
O=C1CCCC(=O)C1C(=O)c1ccc(C(F)(F)F)cc1[N+](=O)[O-],NF-kB SEAP reporter activity,RAW-Dual [2]; [7],0.868
O=C1CCCC(=O)C1C(=O)c1ccc(C(F)(F)F)cc1[N+](=O)[O-] (library stock concentration (final ~1000-fold dilution): 10 mM),NF-kB SEAP reporter activity,RAW-Dual [1]; agonist: LPS (TLR4) 0.1 ug/mL,0.874 and 1.02
same,NF-kB SEAP reporter activity,RAW-Dual [1]; [4],0.949 and 1.11
same,NF-kB SEAP reporter activity,RAW-Dual [1]; [5],0.916 and 1.09
same,NF-kB SEAP reporter activity,RAW-Dual [1]; [6],0.815 and 0.924
OCc1ccccc1OC1OC(CO)C(O)C(O)C1O (stereo unspecified),NF-kB SEAP reporter activity,RAW-Dual [2]; [7],0.917
same,NF-kB SEAP reporter activity,RAW-Dual [2]; [8],1.04
OCc1ccccc1OC1OC(CO)C(O)C(O)C1O (stereo unspecified) (library stock concentration (final ~1000-fold dilution): 10 mM),NF-kB SEAP reporter activity,RAW-Dual [1]; agonist: LPS (TLR4) 0.1 ug/mL,0.986
same,NF-kB SEAP reporter activity,RAW-Dual [1]; [4],1.08
same,NF-kB SEAP reporter activity,RAW-Dual [1]; [5],1.11
same,NF-kB SEAP reporter activity,RAW-Dual [1]; [6],1.19
C=CC(=O)Nc1cccc(Oc2nc(Nc3ccc(N4CCN(C)CC4)cc3)nc3ccsc23)c1 (library stock concentration (final ~1000-fold dilution): 10 mM),NF-kB SEAP reporter activity,RAW-Dual [3]; agonist: LPS (TLR4) 0.1 ug/mL,0.504
same,NF-kB SEAP reporter activity,RAW-Dual [3]; [4],0.202
same,NF-kB SEAP reporter activity,RAW-Dual [3]; [5],0.226
same,NF-kB SEAP reporter activity,RAW-Dual [3]; [6],0.166
